Source: PubChem BioAssay AID1508624 (National Center for Advancing Translational Sciences (NCATS), 2021)
Out of some 48,000 compounds screened, about 120 (0.25%) were called active. Roughly 4% stayed inconclusive and do not appear here. Calls follow the shape of the dose curve; as a rule, active = well fitted activation curve with a large enough effect; inconclusive = small, poorly fitted or top-dose-only effect, or another doubt; inactive = no such curve, though single readings can be large or run the other way. This is one part of the list.

Experiment: Primary qHTS for Identification of Small Molecule Activators of Huntingtin-Antisense Promoter Activity; also: nearly all actives have a fitted effect of over 55% in size
Conditions: HEK293 HTT-AS promoter firefly luciferase reporter, 24 h; series mostly up to 57.5 µM; activity change, positive = activation: at the top concentration
Procedure, shortened: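 Luminescence was read after Dual-Glo reagent and a 10 min room-temperature incubation. Values were normalized to vehicle (0% activity) and zero RLU (-100% activity). Reporter HEK293 cells had been exposed to compounds (up to 57.5 uM final) for 24 h.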
Potency is read from the fitted curve at half-maximal effect.

Compound	activity change, positive = activation	Potency
CCCCCNC(=O)c1ccc2c(c1)nc(C)n2-c1cccc(C)c1	inactive: -2.48%	
O=C(CCn1c(=O)c2cccn2c2ccccc21)Nc1ccc(F)cc1	inactive: -18.3%	
Cc1ccc(C)c(NC(=O)Cn2c(=O)ccc3cc(S(=O)(=O)N4CCCC4)ccc32)c1	inactive: -36.9%	
O=C(NCc1cccs1)c1ccc(CSc2nc3cccnc3n2Cc2ccccc2)cc1	inactive: -25.6%	
O=C1C2=C(Nc3ccccc3SC2c2ccccc2C(F)(F)F)c2ccccc21 (stereo not given)	inactive: -42.8%	
Cc1cc(C)n(-c2nnc(Nc3cc(Cl)ccc3C)c3ccccc23)n1	inactive: -15.3%	
COc1ccccc1NC(=O)c1cc2c([nH]c1=O)CC(C)(C)CC2=O	inactive: 15.2%	
Cc1nc(-c2ccc(C)c(S(=O)(=O)N3CCC(C(=O)Nc4ccc(Cl)cc4)CC3)c2)no1	inactive: -66.7%	
Cc1ccccc1NC(=O)c1ccc(F)c(S(=O)(=O)N(C)C2CCCCC2)c1	inactive: -44.9%	
COc1ccc(NC(=O)c2sc3nc4c(cc3c2N)CCCCCC4)cc1OC	inactive: 1.2% [at 11.5 µM, percent change from vehicle, -100% = no light]	
COc1cc2c(cc1OC)[C@@H]1C(=O)c3ccc4c(c3O[C@@H]1CO2)C=CC(C)(C)O4	inactive: -63.1%	
COc1ccc(CCNC(=O)CCn2c(=O)c3cccn3c3cccnc32)c(OC)c1OC	inactive: -15.1%	
Cc1cccc(NC(=O)N2CCC(n3c(C)nc4cccnc43)CC2)c1	inactive: 18.4%	
CCOC(=O)N1CCC(NC(=O)c2ccc3c(c2)N(Cc2cc(C)ccc2C)C(=O)c2ccccc2S3=O)CC1 (stereo not given)	inactive: -28.8%	
CCC(C)(C)NC(=O)Cn1c(=O)ccc2cc(S(=O)(=O)N3CCC(C)CC3)ccc21	inactive: -16.7%	
CCOc1cc(C(=O)NCCc2csc(-c3ccc(C)cc3)n2)cc(OCC)c1OCC	inactive: -31.1%	
CN(C(=O)c1cc2c(=O)n3ccccc3nc2n1C)c1ccccc1		active: 5.62 µM
CC(C)c1cnn2c(NCc3ccccc3)cc(N[C@@H](CO)[C@H](O)CO)nc12	inactive: -39%	
O=C(Nc1ccc(F)cc1Cl)C1Cc2ccccc2N1C(=O)c1ccccc1 (stereo not given)	inactive: -27.1%	
O=C(CCn1nc(-c2ccc(Cl)cc2)c2ccccc2c1=O)Nc1ccc(OC(F)(F)F)cc1	inactive: -25.4%	
CC(=O)c1cccc(NC(=O)c2nc3ccccc3nc2N2CCCCC2)c1	inactive: 0%	
Cc1ccc(Cl)cc1N1CCN(C(=O)C2CCN(S(=O)(=O)c3ccc4c(c3)oc(=O)n4C)CC2)CC1	inactive: -34.7%	
COc1ccc(OC)c(CNC(=O)C2CCN(c3ncnc4c3nc3n4CCCCC3)CC2)c1	inactive: 1.37%	

Compound	activity change, positive = activation	Potency
CN1C(=O)C2(c3ccccc31)N(c1ccc(F)c(Cl)c1)C(=O)CS2(=O)=O (stereo not given)	inactive: -10.9%	
Cc1cc(C)c2c(n1)nn1c(C)c(CCC(=O)NCc3ccc(Cl)cc3)c(C)nc21	inactive: -7.79%	
COC(=O)c1cc(S(=O)(=O)NCC2CCN(Cc3ccccc3F)CC2)c[nH]1	inactive: -4.24%	
O=C(Nc1cc(F)ccc1F)c1cc2nc(-c3ccco3)cc(C(F)(F)Cl)n2n1	inactive: 17.1%	
CCC(=O)N1CCc2cc(S(=O)(=O)CCC(=O)N3CCN(c4ccc(C(C)=O)cc4)CC3)ccc21	inactive: -29.8%	
CCOc1ccc(-c2cn3c(n2)sc2cc(C(=O)NCCc4ccc(OC)c(OC)c4)ccc23)cc1	inactive: 0.172%	
Cc1ccc(C2=NN(CC(=O)NCCc3ccc(Cl)cc3)C(=O)CC2)cc1	inactive: -7.28%	
CCOC(=O)c1c(S(=O)(=O)N2CCC(C(=O)Nc3ccc(OCC)cc3)CC2)c(C)n(C)c1C	inactive: -24.9%	
CCCCN(CCCC)CCNC(=O)c1cn(C)c2ccc(S(=O)(=O)N3CCCC3)cc2c1=O	inactive: 12.3% [at 11.5 µM, percent change from vehicle, -100% = no light]	
COc1ccc(OC)c(NC(=O)N2c3ccccc3Sc3ccccc32)c1	inactive: -29.6%	
CCc1ccc(C2c3c(-c4cc(C)ccc4O)n[nH]c3C(=O)N2Cc2cccnc2)cc1 (stereo not given)	inactive: -27.5%	
O=C(NCc1ccccc1Cl)c1ccc(Nc2nc3ccccc3n3nnnc23)cc1	inactive: 22.7%	
Cc1nn(CCC(=O)N2CCN(c3ccccc3)CC2)c(C)c1S(=O)(=O)N1CCCC1	inactive: -2.71%	
CCc1cnc2c(c1SCC(=O)N1CCC(C)CC1)c(=O)n(C)c(=O)n2C	inactive: -16.7%	
Cc1c(NC(=O)Nc2ccc(F)c(Cl)c2)c(=O)n(-c2ccccc2)n1C	inactive: 3.31%	
CCOc1ccc(CCNC(=O)Cn2nnc(-c3ccc(C(F)(F)F)cc3)n2)cc1OCC	inactive: -12.2%	
CC(=O)Nc1nnc(SCc2cc(=O)c3cccc(Cl)c3[nH]2)s1	inactive: -15.3%	
Cn1cc(CCCC(=O)NCc2ccccc2Cl)c2ccccc21	inactive: -6.33%	
CCOc1ccc(OCC)c(Nc2cc(C)nc3nc(-c4ccco4)nn23)c1	inactive: -13.3%	
CC(=O)N1c2ccc(S(=O)(=O)N3CCCCCC3)cc2CC1C(=O)NCc1ccccc1F (stereo not given)	inactive: -9.72%	
CCOc1ccc(CCNC(=O)CN2C(=O)c3cccnc3Oc3ccc(Cl)cc32)cc1	inactive: -14.5%	
O=C(c1ccc([N+](=O)[O-])cc1)N1CCN(c2ccc(Nc3ccccc3)nn2)CC1	inactive: -6.3%	
CCN(CC)C(=O)C1=C(C)Nc2nc3ccccc3n2C1c1cccc(Cl)c1 (stereo not given)	inactive: 0.186%	

Compound	activity change, positive = activation	Potency
Cc1ccc(NC(=O)Cn2c(=O)c(CNc3ccccc3)cc3cc4c(cc32)OCCO4)cc1	inactive: -17.1%	
COC(=O)c1ccc(NC(=O)CSc2n[nH]c(CC(C)C)n2)cc1	inactive: -0.222%	
COc1ccc(CNC(=O)c2cc3cccc(OC)c3oc2=O)cc1	inactive: -12.2%	
Cc1ccc(-c2nonc2NC(=O)c2ccco2)cc1C	inactive: -15.6%	
COc1cc(CNc2ccc3[nH]c(=O)[nH]c3c2)cc(Cl)c1OCc1ccccc1F	inactive: -32%	
Cc1ccc(-c2nc3ccccc3[nH]2)cc1NC(=O)COc1cccc(C)c1C	inactive: -23.1%	
Cc1ccc(-c2nn(CC(=O)Nc3cccc(C(F)(F)F)c3)c(=O)c3ccccc23)cc1	inactive: 10.4% [at 11.5 µM, percent change from vehicle, -100% = no light]	
Cc1ccc(CNC(=O)c2ccc3c(c2)N(Cc2cccc(C)c2)C(=O)CS3)cc1	inactive: -31.8%	
Cc1oc(C)c2c(=O)cc(-c3ccc4c(c3)OCO4)cc(OC(=O)c3ccc(Cl)cc3)c12	inactive: -4.21%	
Cc1cccc(-c2[nH]ncc2-c2ccc3ncccc3n2)n1	inactive: -18.6%	
Cc1cccc(C)c1NC(=O)CSCc1cnn(-c2ccccc2)c1-n1cccc1	inactive: -30.6%	
CCC(Sc1nc2ccccc2c2nc(CCc3c(C)n[nH]c3C)nn12)C(=O)Nc1ccccc1F (stereo not given)	inactive: -14.3%	
NC(CSCC(=O)O)C(=O)O (stereo not given)	inactive: -8.79%	
COc1ccccc1Cn1c(CNS(=O)(=O)c2cccc([N+](=O)[O-])c2)nc2cccnc21	inactive: -35%	
Cc1ccccc1C(=O)Nc1ccc(C(=O)N2CCCC(N(C)C)c3ccccc32)cc1 (stereo not given)	inactive: -26.5%	
COc1ccc(C)cc1NC(=O)CCn1nc(C)cc1C	inactive: -5.78%	
COc1ccc(C)cc1NC(=O)CC(=O)Nc1ccc2nc3n(c(=O)c2c1)CCCCC3	inactive: -29.7%	
CC(C)[C@@H]1CC[C@@H](C)CC1=O	inactive: -2.79%	
CC[C@@]1(O)C[C@H](O[C@H]2C[C@H](N(C)C)[C@H](O[C@H]3C[C@H](O)[C@H](O[C@H]4CCC(=O)[C@H](C)O4)[C@H](C)O3)[C@H](C)O2)c2c(cc3c(c2O)C(=O)c2c(O)cccc2C3=O)[C@@H]1C(=O)OC	inactive: -25.1%	
CC(=O)c1cc2ccccc2s1	inactive: 5.53%	
CCOc1ccc(S(=O)(=O)N(C(=O)c2ccncc2)c2ccc3oc(C)c(C(=O)OC)c3c2)cc1	inactive: -71.7%	
CCOc1ccc(C2=CC(c3cc(Br)ccc3F)n3ncnc3N2)cc1Cl (stereo not given)	inactive: -11.1%	
Cc1nn(CC(=O)Nc2cccc(C(F)(F)F)c2)c(=O)c2nn(-c3ccccc3)c(C)c12	inactive: 6.49%	

Compound	activity change, positive = activation	Potency
CCOc1ccc(-n2c(=O)c3c(C)c(C)sc3n(Cc3cc(=O)n4cc(Cl)ccc4n3)c2=O)cc1	inactive: -7.35%	
CC(C)CSc1oc(-c2ccco2)nc1S(=O)(=O)c1ccc(Br)cc1	inactive: -19.9%	
CN(C(=O)CSc1nc2ccccc2n1Cc1cccc(C(F)(F)F)c1)c1ccccc1	inactive: -46.2%	
CC(C)C(=O)Nc1cccc(C2CN3CCSC3=N2)c1 (stereo not given)	inactive: -9.34%	
O=C(NCCc1csc(-c2ccc(F)cc2)n1)c1c(F)cccc1Cl	inactive: -22.4%	
O=C(COC(=O)c1cc(-c2ccccc2)nc2c(Cl)cccc12)c1ccc(F)cc1	inactive: -18.9%	
CCn1cc(C(=O)N2CCN(c3ccc(OC)cc3)CC2)c(=O)c2cc(S(=O)(=O)N(C)C3CCCCC3)ccc21	inactive: -4.69%	
COc1cccc(CNC(=O)c2nn(C)c3c2CS(=O)(=O)c2ccccc2-3)c1	inactive: -5.1%	
O=C(NCc1ccco1)c1ccc2c(c1)N(Cc1ccccc1F)C(=O)c1ccccc1S2=O (stereo not given)	inactive: -36.5%	
COc1ccc(NC(=O)CSC2=Nc3ccccc3C3=NC(CCC(=O)NCCc4ccccc4)C(=O)N23)c(OC)c1 (stereo not given)	inactive: -34.3%	
Cc1cccc(OC(=O)c2cc(-c3ccc(Cl)cc3)on2)c1C	inactive: -5.81%	
COc1ccc(CNC(=O)c2cc(C)nc3c2c(C)nn3-c2cccc(Cl)c2C)cc1	inactive: -27.8%	
COc1cccc(NC(=O)C(CCSC)NC(=O)C2CCC(C)CC2)c1 (stereo not given)	inactive: -7.73%	
Cc1ccccc1CNC(=O)CCC(=O)N1CC2CCCN2c2ccccc21 (stereo not given)	inactive: -12.7%	
Cc1cc(O)c(-c2ccnc3cc(-c4ccccc4)nn23)cc1Cl	inactive: -14.5%	
CC1CCN(S(=O)(=O)c2ccc3c(c2)N(CC(=O)N2CCN(c4ccccc4)CC2)C(=O)CO3)CC1	inactive: -31.5%	
CC(=O)c1ccc(NC(=O)Cn2ncc3c(C)n(Cc4ccc(F)cc4)c(C)c3c2=O)cc1	inactive: -11.3%	
COc1ccccc1C(=O)Nc1nc2nc(C)c(Cc3ccccc3)c(=O)n2[nH]1	inactive: 6.37%	
COc1ccccc1CNc1ncnc2c1c(-c1ccccc1)cn2-c1cccc(C)c1	inactive: -30.3%	
COc1cccc(Cn2c(CNS(=O)(=O)c3ccc4c(c3)CCCC4)nc3cccnc32)c1	inactive: -27.9%	
Cc1ccc(Nc2cc(C(=O)NCc3cccs3)c3ccccc3n2)c(C)c1	inactive: -4.12%	
